Literature values, collected in patent US5616566A, “Method of inhibiting HIV replication with 2',3'-dideoxyadenosine” (The United States of America as represented by the …, priority 1993, dated 1997).

Test system: Herpes simplex type I DNA polymerase
Settings: cited from earlier work

Question: With `Cc1cn([C@H]2CC[C@@H](CO)O2)c(=O)[nH]c1=O` [2',3'-dideoxythymidine] as the molecule, how does the “resistance of Herpes simplex type I DNA polymerase” value read?
Answer: The value was “as resistant to 2',3'-dideoxythymidine as cellular DNA polymerase alpha”.
